Test results taken from PubChem BioAssay AID686978 (National Center for Advancing Translational Sciences (NCATS), 2013).
Where “and” joins values, the source holds several entries; their conditions need not be identical. Equal values may be shown once. Among all 420,000 compounds or so, about 64,000 (15%) were called active. This list was built around the results that the source calls inconclusive (neither active nor inactive); the mix of calls is not that of the screen. The call rests on the fitted dose curve; in most records, active means well fitted inhibition curve with a large enough effect; inconclusive means small, poorly fitted or top-dose-only effect; inactive means flat fitted curve, though single readings scatter. Potencies of inconclusive entries are doubtful fits and often do not repeat.

assay: qHTS for Inhibitors of human tyrosyl-DNA phosphodiesterase 1 (TDP1): qHTS in cells in absence of CPT; settings: DT40 Tdp1-/- hTDP1 cells, no CPT, ATP luminescence, 48 h; series mostly up to 46.2 µM; further: nearly all actives have a fitted effect of over 55% in size
Summary of the method: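 DT40 Tdp1-/-;hTDP1 cells, no CPT (DMSO vehicle only), 400 cells/well; compounds pin-transferred; ≥48 hr, 37 °C; CellTiter-Glo 30 min RT dark, luminescence read.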
Potency means the concentration at half of the fitted maximal effect; tags describe the fitted curve by direction and shape.

Row | Structure (SMILES) | Potency
1 | COc1ccc(OC)c(Nc2nc(N)c([N+](=O)[O-])c(NCc3ccccc3)n2)c1 | inconclusive: 11.6 µM [inhibitor, partial curve]
2 | Fc1cccc(NC(=S)NNc2ccccc2)c1 | active: 2.59 µM
3 | NC(=O)CC(NC(=O)Cc1ccc(Br)cc1)c1ccc(NCCN2CCCCC2)c([N+](=O)[O-])c1 (stereo unspecified) | inconclusive: 3.26 µM [inhibitor, single point]
4 | CCC(C)(C)c1ccc(OCCCC[n+]2ccc(C)cc2)c(C(C)(C)CC)c1 | active: 1.16 µM
5 | CCN1C(=O)C(CC(=O)Nc2ccc(F)cc2)N(CCc2ccc(OC)cc2)C1=S (stereo unspecified) | inconclusive: 29.1 µM [inhibitor, single point]
6 | CCc1nc2ccc(C(=O)N(C)CCCN(C)C)cn2c1N(C)CCCc1ccccc1 | inconclusive: 29.1 µM [inhibitor, single point]
7 | O=C(NC1CCCCCC1)C1CCC(CNS(=O)(=O)c2cccc3cccnc23)CC1 (stereo unspecified) | inactive
8 | CCCc1c(-c2ccc(Cl)cc2)ncn1CCc1ccccc1OC | active: 5.8 µM
9 | CC12CCC(C(=O)N(CC(O)CN3CCCCCC3)C1=O)C2(C)C (stereo unspecified) | inactive
10 | COc1ccc(OCCSc2nnc3sc4ccccc4n23)cc1 | inconclusive: 23.1 µM [inhibitor, single point]
11 | CSCc1c(C(=O)Nc2ccc3c(c2)OCO3)oc2ccccc12 | inconclusive: 20.6 µM [inhibitor, partial curve, poor fit]
12 | N#CC1=C(SCc2ccccc2Cl)NC(=O)C(C(N)=O)C1 (stereo unspecified) | inactive
13 | COc1cc(C)nc(Oc2ccc(OCCOc3ccccc3)nn2)n1 | inactive
14 | CCOC(=O)c1c(NC(=O)CSc2ncnc3[nH]ncc23)sc2c1CCC(C)C2 (stereo unspecified) | inconclusive: 0.731 µM [inhibitor, partial curve]
15 | COc1ccc(CCN(C)CCCN2CCc3cc(OC)c(OC)cc3CC2=O)cc1OC | inactive
16 | c1ccc(-n2nnnc2-c2cnc(-c3ccncc3)nc2-c2cccs2)cc1 | inactive
17 | COc1cccc(-c2cccc(NC(=O)C3CCN(Cc4ccc(C)o4)CC3)c2)c1 | inconclusive: 23.1 µM [inhibitor, single point]
18 | Clc1ccc(OCCNCCc2ccccc2)cc1 | inconclusive: 29.1 µM [inhibitor, single point]
19 | Cc1cc(NC(=O)c2ccccc2NS(=O)(=O)c2c(C)c(C)cc(C)c2C)no1 | inconclusive: 13 µM [inhibitor, partial curve, poor fit]
20 | Cc1cc(C)c(NC(=O)COCc2cc(-c3cccs3)on2)c(C)c1 | inconclusive: 29.1 µM [inhibitor, single point]
21 | COC(=O)c1scc(-c2ccc(C)cc2)c1S(=O)(=O)Nc1ccc(NC(C)=O)cc1 | inconclusive: 29.1 µM [inhibitor, single point]
22 | CCC(=O)Nc1c2c(nn1-c1ccc(OC)cc1)CSC2 | inactive
23 | CC1=C(C(=O)OCC2CCCO2)C(c2ccsc2)C2=C(CCCC2=O)N1 (stereo unspecified) | inconclusive: 29.1 µM [inhibitor, single point]
24 | Cc1ccc(N(CC2CO2)S(=O)(=O)c2ccccc2[N+](=O)[O-])cc1 (stereo unspecified) | inconclusive: 14.6 µM [inhibitor, partial curve]

Row | Structure (SMILES) | Potency
25 | COc1cc(OC)cc(C(=O)N[C@H](C(=O)Nc2nc(-c3ccc(F)c(F)c3)cs2)C(C)C)c1 | inconclusive: 20.6 µM [inhibitor, partial curve]
26 | CCOC(=O)C1CCCN(CCC(=O)Nc2cc(C)ccc2C)C1 (stereo unspecified) | inactive
27 | Cc1cccc(CCN(C(=O)Cc2cccs2)C(C(=O)NC2CCCCC2)c2cccnc2)c1 (stereo unspecified) | inconclusive: 18.4 µM [inhibitor, partial curve]
28 | N#CCSc1nnc(-c2sc3ccccc3c2Cl)o1 | inconclusive: 20.6 µM [inhibitor, single point]
29 | CCSc1nc2sccc2c(=O)n1-c1ccccc1 | inconclusive: 14.6 µM [inhibitor, partial curve]
30 | Cc1cccc(NC(=S)N(C)C2CCCCC2)c1 | inconclusive: 29.1 µM [inhibitor, single point]
31 | COc1ccc(-c2cn3nc(SCC(=O)Nc4ccccc4F)ccc3n2)cc1 | inconclusive: 20.6 µM [inhibitor, single point]
32 | CCn1c(=O)c(CCC(=O)N2CCOCC2)c(C)c2c(C)nn(-c3ccccc3)c21 | active: 20.6 µM
33 | CCOc1cc(N2CCOCC2)c(OCC)cc1NC(=O)COC(=O)c1ccc(OC)c([N+](=O)[O-])c1 | active: 23.1 µM
34 | COc1ccc(-c2cc(=O)oc3c(O)c(O)ccc23)cc1 | inconclusive: 29.1 µM [inhibitor, single point]
35 | Cc1ccc(Nc2cc(=O)n(C)c(=O)[nH]2)cc1C | inconclusive: 29.1 µM [inhibitor, single point]
36 | CC(OC(=O)c1cc2sccc2n1C)C(=O)NCCc1ccccc1 (stereo unspecified) | active: 17.8 µM
37 | Cc1cc(C(=O)N/N=C/c2ccc(OCc3ccccc3)cc2)c(C)o1 | active: 16.4 µM
38 | O=C(Cc1ccccc1)NCc1ccc(-n2cccc2)cc1 | active: 3.66 µM
39 | O=C(Nc1cccnc1Cl)c1ccc(=O)oc1 | inactive
40 | COC(=O)c1ccc(Sc2ccccc2NS(=O)(=O)c2ccc(C)cc2)nc1 | inactive
41 | CCOC(=O)c1ccc(NC(=O)Cc2coc3cc4c(cc23)CCC4)cc1 | inconclusive: 23.1 µM [inhibitor, partial curve]
42 | O=c1[nH]nc(-c2ccc(NCCCO)c([N+](=O)[O-])c2)c2ccccc12 | inconclusive: 11.6 µM [inhibitor, partial curve]
43 | COc1ccc(-n2ncc(C(=O)NCc3ccc4c(c3)OCO4)c2C2CCN(C(=O)OC(C)(C)C)CC2)cc1 | inconclusive: 23.1 µM [inhibitor, single point]
44 | C=C1C(=O)[C@@]23[C@H](O)C[C@@H]4C(C)(C)CC[C@H](O)[C@]4(C)[C@@H]2C[C@H](O)[C@@H]1[C@H]3O | inconclusive: 4.61 µM [inhibitor, full curve]
45 | O=C(Nc1ccc(Cl)cc1)c1cccnc1N1CCCCC1 | inconclusive: 25.9 µM [inhibitor, single point]
46 | O=c1ccc2cc(O)c(O)cc2o1 | inactive and inconclusive: 29.1 µM [inhibitor, single point]
47 | COc1ccc2oc(=Nc3cccc(F)c3)c(C(N)=O)cc2c1 | inconclusive: 25.9 µM [inhibitor, single point]
48 | Cc1cccc(OCC(=O)Nc2cccc(C(=O)OCc3cc(=O)n4c(C)csc4n3)c2)c1 | inconclusive: 23.1 µM [inhibitor, single point]

Row | Structure (SMILES) | Potency
49 | CSc1cccc(NC(=O)c2[nH]c(C)c(C(C)=O)c2C)c1 | inconclusive: 7.31 µM [inhibitor, full curve]
50 | O=c1oc(-c2ccccc2)cc(Cl)c1Cl | active: 1.84 µM
51 | O=C(Nc1ccccc1)Nc1nc(-c2ccc(Cl)cc2)cs1 | inconclusive: 11.6 µM [inhibitor, partial curve]
52 | O=C(Sc1nnc(-c2ccccc2)o1)N1c2ccccc2Sc2ccccc21 | active: 18.4 µM
53 | Cn1c(=NC(=O)c2ccco2)sc2ccccc21 | inconclusive: 16.4 µM [inhibitor, single point]
54 | Cc1ccc(NC(=O)CCCN2C(=O)/C(=C/C=C/c3ccccc3)SC2=S)cc1 | inconclusive: 23.1 µM [inhibitor, partial curve]
55 | COc1ccc(-c2noc3c2-c2nc(-c4ccc(Br)cc4)sc2CC3)cc1 | inactive
56 | O=C(COC(=O)C1CC(=O)N(c2ccc3c(c2)OCCO3)C1)Nc1ccc2c(c1)CCC2 (stereo unspecified) | inactive
57 | OCCN1CCN(CC(O)COc2ccc(-c3ccccc3)cc2)CC1 (stereo unspecified) | inconclusive: 29.1 µM [inhibitor, single point]
58 | O=C(CN1CCN(S(=O)(=O)c2ccc(Br)cc2)CC1)c1ccc(O)c(O)c1 | active: 7.31 µM
59 | COc1cc(OC)c(NS(=O)(=O)c2c(C)[nH]c(=O)[nH]c2=O)cc1Cl | inactive
60 | O=c1c(O)c(-c2cccc(O)c2)oc2ccccc12 | inconclusive: 8.41 µM [inhibitor, full curve, poor fit]
61 | Cc1ccc(N(CC(=O)Nc2ccc3c(c2)OCCO3)S(=O)(=O)c2c(C)n[nH]c2C)cc1 | inconclusive: 18.4 µM [inhibitor, single point]
62 | O=C(N/N=C/c1cccc2ccccc12)c1ccc(CN2CCOCC2)cc1 | inconclusive: 11.6 µM [inhibitor, partial curve]
63 | CCN1CCN(c2ccc(S(=O)(=O)N3CCCCC3)cc2NC(=O)Cc2ccccc2)CC1 | inactive
64 | COc1ccc(CN2C(=O)C(CC(=O)NCCCN(C)C)CC(C(=O)N(C)C)=C2C)cc1 (stereo unspecified) | inactive
65 | Cc1ccc(/C=C/c2onc(C)c2S(=O)(=O)N2CCC(C(=O)NCc3ccco3)CC2)cc1 | inactive
66 | CCCn1c(=O)c(C(=O)Nc2ccccc2N)c(O)c2ccccc21 | inconclusive: 29.1 µM [inhibitor, single point]
67 | O=C(CCCN1C(=O)/C(=C/c2ccccc2Cl)SC1=S)Nc1cccnc1 | active: 16.4 µM
68 | NC(=O)c1ccc(-n2nnnc2Oc2ccccc2)cc1 | inactive
69 | Cc1ccc(S(=O)(=O)CC(C)N2CCN(C3CCCCC3)CC2)cc1 (stereo unspecified) | inactive
70 | CCOC(=O)c1ccc(NC(=S)Nc2cccc(N)n2)cc1 | inconclusive: 29.1 µM [inhibitor, single point]
71 | COc1cc(OC)cc(C(=O)NC(=S)N2CCN(c3ccc(C(F)(F)F)cc3[N+](=O)[O-])CC2)c1 | active: 16.4 µM
